Test results taken from PubChem BioAssay (Tox21).
Inconclusive results, whose numbers are uncertain, are shown with a selection of clear calls. For some of these results: Potencies beside an inconclusive call are fits to weak or partial responses and may not hold up. Calls of active or inactive are those of the source. Unless noted, the call rests on the fitted dose curve; in most records, active means well fitted curve in the direction sought with a large enough effect in the repeat runs; inconclusive means weak or mixed curves; inactive means no such curve, though single readings can be large; an effect the other way counts as inactive or inconclusive.

Experiments:
[1] = qHTS assay for small molecule agonists of the p53 signaling pathway (AID 651631; calls by dose curve; further: nearly all actives have a fitted effect of over 15% in size; further: potency means the concentration at half of the fitted maximal effect; on activation: on the % scale 0 is the no-effect control and ±100 the full control effect); settings: HCT-116 p53RE-bla reporter, beta-lactamase FRET ratio, 16 h; activation: at 73.3 µM (top of the series) unless noted
Outline: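 Stably transfected HCT-116 cells (beta-lactamase behind p53 response elements) get compounds after a 5 h settling period; 16 h later at 37 °C, FRET substrate is loaded and fluorescence read after 2 h.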

[2] = qHTS assay for small molecule disruptors of the mitochondrial membrane potential (AID 720635); settings: HepG2 mitochondrial membrane potential, Mito-MPS dye ratio; further: potency means the concentration at half of the fitted maximal effect; on ratio activity, negative = MMP loss: on the % scale 0 is the no-effect control and ±100 the full control effect
Outline: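 HepG2 cells exposed to compound 1 hr at 37C, then Mito-MPS dye 30 min. Ratio read of aggregate (540/590 nm) versus monomer (490/535 nm) fluorescence.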

[3] = qHTS assay to test for compound auto fluorescence at 535 nm (green) in HEK293 cells (AID 720680); settings: green autofluorescence 485/535 nm; further: potency means the concentration at half of the fitted maximal effect
Text: U.S. Tox21 Program National Center for Advancing Translational Sciences [NCATS] NIH Chemical Genomics Center [NCGC] U.S. Environmental Protection Agency [EPA] National Institutes of Environmental Health Sciences [NIEHS] National Toxicology Program [NTP] U.S. Food and Drug Administration [FDA] Tox21 Assay Overview: Compound auto fluorescence often interferes with screening of the compound library against various biological targets and signaling pathways. Some of these compounds may have fluorophoric properties. Such properties may interfere with the assay outputs resulting in false positives and/or negatives. To decrease such complications and ensure the compound activities are relevant in terms of biological response, the Tox21 10K compound library was screened for auto fluorescence. From the fluorophores used as reporter signals in our screening assays, the auto fluorescence equivalencies of compounds against three fluorophores have been evaluated: Triamterene, Fluorescein and Rose Bengal sodium for blue, green and red fluorescence, respectively. The fluorescence intensities were measured using Excitation/Emission wavelengths at 405/460nm, 485/535nm and 540/590nm for blue, green and red labels, respectively. This assay includes the green fluorescence data.
Tox21 Assay Protocol Summary: 2,000 HEK293 cells in 5 uL of culture medium containing 10% dialyzed FBS per well were dispensed into black wall/clear bottom 1536-well plates using a Multidrop Combi Dispenser (Thermo Scientific). The assay plates were incubated for 4-5 hr at 37C to allow cell attachment to the well bottom, followed by the transfer of 23 nL compound or DMSO vehicle by a pintool work station (Kalypsys, San Diego, CA). After the assay plates were incubated overnight at 37C and 5% CO2, fluorescence intensities in the assay plates were measured by an Envision (PerkinElmer, Shelton, CT) plate reader using three labels for measuring blue, green and red fluorescence at […] 460, 535 and 590nm respectively.

[4] = qHTS assay to test for compound auto fluorescence at 535 nm (green) in HEK293 cell free culture (AID 720682); settings: cell-free medium, green autofluorescence 485/535 nm; further: potency means the concentration at half of the fitted maximal effect
Outline: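 Using fluorescein as calibrant, autofluorescence was quantified at 485/535 nm in cell-free DMEM containing 10% FBS after pintool addition of compound or vehicle.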

[5] = target: Glucocorticoid receptor (Homo sapiens) (UniProt P04150); assay: qHTS assay to identify small molecule antagonists of the glucocorticoid receptor (GR) signaling pathway (AID 720692; active means well fitted inhibition curve with a large enough effect in the signal ratio in the repeat runs, not every such curve was filed as active; inconclusive means weak or mixed curves, or effect the other way; inactive means no such curve, though single readings can be large or run the other way; the % refers to the signal ratio; further: potency means the concentration at half of the fitted maximal effect; on activity change, negative = inhibition: on the % scale 0 is the no-effect control and ±100 the full control effect); settings: GR-bla HeLa, beta-lactamase FRET ratio, dexamethasone-stimulated, 18 h; activity change, negative = inhibition: at 58.5 µM (top of the series) unless noted
Outline: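 Inhibition of glucocorticoid signalling is measured in HeLa cells with a GRE-controlled beta-lactamase reporter; cells are co-treated with compound and 5 nM dexamethasone (final) for 18 h before FRET substrate readout.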

[6] = qHTS assay for small molecules that induce genotoxicity in human embryonic kidney cells expressing luciferase-tagged ATAD5 (AID 651632); settings: HEK293T ATAD5-luciferase induction, 16 h; series mostly up to 83.3 µM; further: on the % scale 0 is the no-effect control and ±100 the full control effect; nearly all actives have a fitted effect of over 15% in size
Outline: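 Luminescent reporter readout, HEK293T ATAD5-luc line: 16 hr drug exposure (37C, 5% CO2) followed by Amplite, 30 min RT.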

[7] = target: Glucocorticoid receptor (Homo sapiens) (UniProt P04150); assay: qHTS assay to identify small molecule agonists of the glucocorticoid receptor (GR) signaling pathway (AID 720691; active means well fitted activation curve with a large enough effect in the signal ratio in the repeat runs, not every such curve was filed as active; inconclusive means weak or mixed curves, or effect the other way; inactive means no such curve, though single readings can be large or run the other way; the % refers to the signal ratio; further: on the % scale 0 is the no-effect control and ±100 the full control effect); settings: GR-bla HeLa, beta-lactamase reporter ratio, 18 h; activation: at 62.4 µM (top of the series) unless noted
Outline: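 qHTS in GR-bla HeLa cells: 4 h settling at 37 C/5% CO2, 18 h compound incubation at 37 C, 2 h LiveBLAzer B/G FRET substrate at room temperature, fluorescence intensity measured.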

[8] = qHTS assay to test for compound auto fluorescence at 535 nm (green) in HepG2 cell free culture (AID 720686); settings: Cell-free medium, green autofluorescence 485/535 nm; series mostly up to 91.3 µM; further: potency means the concentration at half of the fitted maximal effect
[9] = ratio activity, negative = MMP loss: at 83.2 µM (top of the series) unless noted
Tags describe the fitted curve by direction and shape or compound fluorescence and quenching.

UniProt P04150, sequence (P04150 whole entry, looked up): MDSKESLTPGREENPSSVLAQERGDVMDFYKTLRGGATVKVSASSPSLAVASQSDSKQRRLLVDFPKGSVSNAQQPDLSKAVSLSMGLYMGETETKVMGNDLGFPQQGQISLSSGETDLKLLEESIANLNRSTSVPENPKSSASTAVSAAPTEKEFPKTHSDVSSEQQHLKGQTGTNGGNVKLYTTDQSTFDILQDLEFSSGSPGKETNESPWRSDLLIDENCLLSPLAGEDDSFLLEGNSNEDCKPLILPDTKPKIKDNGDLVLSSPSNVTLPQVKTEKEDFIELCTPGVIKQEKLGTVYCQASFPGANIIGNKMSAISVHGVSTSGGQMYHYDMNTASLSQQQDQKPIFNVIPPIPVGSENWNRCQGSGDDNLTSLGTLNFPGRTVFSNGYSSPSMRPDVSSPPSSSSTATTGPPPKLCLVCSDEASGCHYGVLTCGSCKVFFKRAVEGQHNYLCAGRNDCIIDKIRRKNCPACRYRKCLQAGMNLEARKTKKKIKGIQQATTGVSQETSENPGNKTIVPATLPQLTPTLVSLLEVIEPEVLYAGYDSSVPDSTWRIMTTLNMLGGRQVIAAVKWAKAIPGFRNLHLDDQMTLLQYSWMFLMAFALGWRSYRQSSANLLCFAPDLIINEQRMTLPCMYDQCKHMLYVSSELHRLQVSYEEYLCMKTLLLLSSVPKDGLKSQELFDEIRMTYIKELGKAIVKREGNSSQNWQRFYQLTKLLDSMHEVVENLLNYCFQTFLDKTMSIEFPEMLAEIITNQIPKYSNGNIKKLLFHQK

## O=C(CCN1CCN(CCO)CC1)N1c2ccccc2Sc2ccc(C(F)(F)F)cc21
[1]
  activation: inconclusive: 0.904%
[2]; [9]
  ratio activity, negative = MMP loss: inconclusive: 51.9%

## C[Si](C)(CCCN)O[Si](C)(C)CCCN
[1]
  activation: inconclusive: 8.87%
[2]; [9]
  ratio activity, negative = MMP loss: inconclusive: 37.7%

## CN(C)c1ccc(C=O)cc1
[1]
  Potency: inconclusive: 21.7 µM [rising, full curve, poor fit]
[2]; [9]
  ratio activity, negative = MMP loss: inconclusive: 10.1%

## CCCN(CCc1cccs1)[C@H]1CCc2c(O)cccc2C1
[1]
  Potency: inconclusive: 33.5 µM [falling, partial curve, poor fit]
[2]; [9]
  Potency: active: 24.8 µM

## C=CCON/C(CCC)=C1\C(=O)CC(C)(C)C(C(=O)OC)=C1O
[1]
  Potency: inconclusive: 0.539 µM [activator, single point]
[2]; [9]
  Potency: inconclusive: 6.04 µM [activator, full curve]

## CC(=O)CC(C)(C)C1CCCCC1
[1]
  Potency: inactive
[2]; [9]
  ratio activity, negative = MMP loss: inconclusive: 3.58%

## ClC(Cl)(Cl)c1ccc(C(Cl)(Cl)Cl)cc1
[1]
  activation: inconclusive: 2.39%
[2]; [9]
  Potency: active: 13.5 µM

## CCC(=O)O[C@]1(C(=O)SCF)[C@H](C)C[C@H]2[C@@H]3C[C@H](F)C4=CC(=O)C=C[C@]4(C)[C@@]3(F)[C@@H](O)C[C@@]21C
[1]
  Potency: inactive
[2]; [9]
  Potency: active: 7.17 µM

## Nc1nnc(-c2ccc([N+](=O)[O-])o2)o1
[1]
  Potency: inconclusive: 77 µM [activator, partial curve, poor fit]
[2]; [9]
  Potency: active: 61.1 µM

## CC(CCc1ccccc1)NCC(O)c1ccc(O)c(C(N)=O)c1 (stereo not drawn)
[1]
  Potency: inconclusive: 26.6 µM [rising, partial curve, poor fit]
[2]; [9]
  ratio activity, negative = MMP loss: inconclusive: 36.3%

## O=C(O)Cn1c(C(=O)Nc2nc(-c3ccccc3Cl)cs2)cc2ccccc21
[1]
  Potency: inconclusive: 0.0944 µM [fluorescent, full curve]
[2]; [9]
  Potency: active: 26.6 µM

## CCC(C)C1N=C(C)C(C)S1 (stereo not drawn)
[1]
  Potency: inconclusive: 21.7 µM [rising, partial curve, poor fit]
[2]; [9]
  Potency: inactive

## C=Cc1ccccn1
[1]
  Potency: inactive
[2]; [9]
  Potency: inactive

## CCCCCCCCCCCCO
[1]
  Potency: inactive
[2]; [9]
  Potency: inactive

## CC(=O)O[C@@H]1CC2CCC1(C)C2(C)C (stereo partly drawn)
[2]; at 83.2 µM (top of the series)
  ratio activity, negative = MMP loss: inactive: 8.29%

## c1cc(-c2ccncc2)ccn1
[2]; at 83.2 µM (top of the series)
  ratio activity, negative = MMP loss: inconclusive: 24.3%
[2]; at 95.3 µM (top of the series)
  ratio activity, negative = MMP loss: inconclusive: 11.5%

## CCCCOCCOCCO
[2]; at 95.3 µM (top of the series)
  ratio activity, negative = MMP loss: inactive: 7.4%

## CCCC(=O)OC[C@@H](OC(=O)CCC)[C@@H](OC(=O)CCC)[C@H](Cn1c2nc(=O)[nH]c(=O)c-2nc2cc(C)c(C)cc21)OC(=O)CCC
[3]
  Potency: inconclusive: 8.91 µM [fluorescent, partial curve]
[4]
  Potency: inconclusive: 8.91 µM [fluorescent, partial curve]

## CC(C)Nc1cccnc1N1CCN(C(=O)c2cc3cc(NS(C)(=O)=O)ccc3[nH]2)CC1
[1]
  Potency: inactive
[2]; [9]
  Potency: active: 26.6 µM
[5]
  activity change, negative = inhibition: inconclusive: -32.1%

## CC(C)NCC(O)c1ccc(NS(C)(=O)=O)cc1 (stereo not drawn)
[1]
  Potency: inactive
[2]; [9]
  Potency: inconclusive: 7.5 µM [activator, partial curve, poor fit] and inactive
[5]
  activity change, negative = inhibition: inconclusive: 22.5%

## O=C(C(=O)c1ccccc1)c1ccccc1
[1]
  Potency: inactive
[2]; [9]
  Potency: inconclusive: 4.84 µM [activator, partial curve, poor fit]
[5]
  Potency: inactive

## CN1CCC(=C2c3ccccc3C=Cc3ccccc32)CC1
[1]
  Potency: inconclusive: 5.31 µM [fluorescent, partial curve]
[2]; [9]
  Potency: inconclusive: 9.44 µM [activator, partial curve]
[5]
  Potency: inconclusive: 26.8 µM [cytotoxic, single point]

## CO[Si](OC)(OC)c1ccccc1
[6]
  Potency: inactive

## CCCCCC/C=C\CCCCCCCC(=O)O
[1]
  Potency: inconclusive: 68.6 µM
[2]; [9]
  Potency: inconclusive: 68.6 µM [activator, single point]
[5]
  Potency: inconclusive: 54.9 µM [cytotoxic]

## Clc1cc(Cl)c(Cl)nc1Cl
[6]
  Potency: inactive

## CN1C[C@H]2c3ccccc3Oc3ccc(Cl)cc3[C@@H]2C1
[1]
  Potency: active: 29.8 µM
[7]
  Potency: inactive

## CC1(C)O[C@H]2CC(=O)OC[C@]23[C@H]2CC[C@@]4(C)[C@H](c5ccoc5)OC(=O)[C@H]5O[C@]54[C@]2(C)C(=O)C[C@@H]13
[1]
  activation: inconclusive: 3.32%
[5]
  activity change, negative = inhibition: inconclusive: 60.1%

## CN(C)CC/C=C1/c2ccccc2COc2ccc(CC(=O)O)cc21
[6]
  Potency: inactive

## Cc1cc(C)c(/C=C2\C(=O)Nc3ccccc32)[nH]1
[1]
  Potency: inconclusive: 33.5 µM [inhibitor]
[8]
  Potency: inconclusive: 8.91 µM [fluorescent, partial curve, poor fit]
